Reference: the supplement of paper PMC10126150
Values marked as one replicate rest on one cluster of the flow cell; about a third of the high ones do not repeat.

test system: ATP; assay: switch fluorescence ratio, 500 uM ATP over buffer (Cy3 cluster intensity, sum of 5 cycles each) (fold (ratio)); higher = stronger signal-on switching upon ATP binding; sequences stand for … in TCGTCGGCAGCGTCAGATGTGTATAAGAGACAGTTTTTTTTTTTTTTTTTTTTTTTTT…TC; conditions: aptamer strand: ATP DNA aptamer (quencher-CACCTGGGGGAGTATTGCGGAGGAAGG + anchor), 100 nM annealed; ATP concentration: 500 uM; one replicate
Summary of the method: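 Between each of five buffer/ATP cycles, the flow-cell was stripped with NaOH and re-annealed. Each cycle imaged Cy3-labelled switching-strand clusters, annealed to 100 nM quencher-labelled ATP aptamer on a modified Illumina MiSeq flow-cell, first in selection buffer and then after 15 min with 500 uM ATP at 22 °C. The fluorescence ratio is summed target-cycle over summed buffer-cycle Cy3 intensity per cluster, averaged per switch-domain sequence, with clusters outside 100-1000 RFU excluded.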
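Note: ATP exposure 15 min at 22 °C before imaging.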

Row | Sequence | switch fluorescence ratio
1 | TGATCTAATG | 1.01
2 | TGATCTTTAT | 0.972
3 | TGATGAAGGC | 1.03
4 | TGATGATCTT | 1
5 | TGATGCTGAG | 1
6 | TGATGGAAAC | 0.986
7 | TGATGTGAGG | 0.993
8 | TGATGTTGG | 0.98
9 | TGATGTTTGT | 0.943
10 | TGATTAAACC | 1.01
11 | TGATTAATGC | 1.08
12 | TGATTAATT | 0.977
13 | TGATTACCGA | 1.05
14 | TGATTACGGT | 1.02
15 | TGATTACTAA | 1.06
16 | TGATTAGCTA | 0.97
17 | TGATTATATA | 1.01
18 | TGATTATTCT | 1.05
19 | TGATTCAATG | 1.04
20 | TGATTCGCGA | 1.08
21 | TGATTCTCGA | 0.907
22 | TGATTCTGGA | 1.02
23 | TGATTCTTCA | 1.02
24 | TGATTGACT | 0.984
25 | TGATTGTGAC | 0.937
26 | TGATTTACCG | 1.08

Row | Sequence | switch fluorescence ratio
27 | TGATTTGTCT | 1.01
28 | TGATTTGTT | 0.986
29 | TGCAAAATCA | 0.975
30 | TGCAAATAGT | 1.01
31 | TGCAAATGAA | 1.05
32 | TGCAAATGGT | 1.01
33 | TGCAACAGAT | 1.01
34 | TGCAACTATT | 1.04
35 | TGCAATATTA | 1.38
36 | TGCACGAAGT | 1.02
37 | TGCACGGTGC | 0.997
38 | TGCACGTAAA | 1.27
39 | TGCACGTCGC | 1.09
40 | TGCACTAGC | 1.01
41 | TGCAGACGT | 1.02
42 | TGCAGACTGG | 1.02
43 | TGCAGAGCTA | 0.993
44 | TGCAGATGGT | 0.998
45 | TGCAGGGTTA | 1.05
46 | TGCAGGTCGG | 0.951
47 | TGCAGTACGC | 1.41
48 | TGCAGTGTAT | 1
49 | TGCAGTTATT | 0.985
50 | TGCAGTTCC | 1.13
51 | TGCATAGGTG | 1.45
52 | TGCATGCTTG | 0.982

Row | Sequence | switch fluorescence ratio
53 | TGCATTTCA | 1.02
54 | TGCATTTTA | 1.04
55 | TGCCACCCC | 1.23
56 | TGCCACCGGG | 1.05
57 | TGCCAGAGTA | 1.01
58 | TGCCAGGTTG | 1.69
59 | TGCCATATCC | 1.08
60 | TGCCATGAGG | 1.46
61 | TGCCATTAAC | 1
62 | TGCCATTAGA | 0.996
63 | TGCCCCAGGG | 1.66
64 | TGCCCCCGCT | 1.11
65 | TGCCCGTATA | 1.04
66 | TGCCCTAGGA | 1.03
67 | TGCCCTTAGT | 1.02
68 | TGCCGCAACA | 3.26
69 | TGCCGCGGAC | 1.03
70 | TGCCGCTATA | 3.07
71 | TGCCGGACGC | 0.947
72 | TGCCGGGCCT | 1.03
73 | TGCCGGGGTA | 0.961
74 | TGCCGGTTAC | 1.09
75 | TGCCGTGTTT | 1.03
76 | TGCCTAAGGT | 0.999
77 | TGCCTATTGA | 0.949
78 | TGCCTCAAAT | 1.01

Row | Sequence | switch fluorescence ratio
79 | TGCCTCTGGG | 0.96
80 | TGCCTGTC | 1.49
81 | TGCGAAGGTG | 1.32
82 | TGCGAGAGCA | 0.958
83 | TGCGAGAGGG | 0.989
84 | TGCGAGCGCG | 1
85 | TGCGAGTAGA | 1
86 | TGCGATATAA | 1.01
87 | TGCGATCTGC | 1
88 | TGCGATGATC | 1.02
89 | TGCGATTACA | 1.02
90 | TGCGCAAATA | 1.16
91 | TGCGCGCAGT | 0.989
92 | TGCGCGGAGT | 0.98
93 | TGCGCGTCTG | 1.02
94 | TGCGCTAGAG | 1.07
95 | TGCGCTCCCG | 1.06
96 | TGCGGCAATC | 1.49
97 | TGCGGCTGTT | 0.993
98 | TGCGGGCTTA | 1.06
99 | TGCGGTTGCC | 1
100 | TGCGTATCGA | 0.974
101 | TGCGTCATGC | 0.992
102 | TGCGTCTGCT | 1.02
103 | TGCGTCTTTC | 0.998
104 | TGCGTTCAAT | 1.05

Row | Sequence | switch fluorescence ratio
105 | TGCGTTGTAA | 1
106 | TGCTAAAATA | 0.982
107 | TGCTAATAGC | 1.04
108 | TGCTAGCGG | 1.01
109 | TGCTATAGAT | 1
110 | TGCTATCAGG | 1.06
111 | TGCTATTAA | 0.956
112 | TGCTATTCCT | 1.01
113 | TGCTCACACA | 0.98
114 | TGCTCATAAT | 0.993
115 | TGCTCCACAT | 2.3
116 | TGCTCGAC | 1.21
117 | TGCTCTACAT | 1.03
118 | TGCTCTGACG | 0.996
119 | TGCTGACAAG | 0.99
120 | TGCTGCAAGA | 1.07
121 | TGCTGCAGCG | 0.993
122 | TGCTGCTAAG | 0.984
123 | TGCTGGCAGC | 1.02
124 | TGCTGGGAGG | 0.971
125 | TGCTGGTAAA | 1.01
126 | TGCTGGTAAT | 0.987
127 | TGCTTCAAAC | 2.47
128 | TGCTTCCGTA | 1.08
129 | TGCTTCTAGC | 1.02
130 | TGCTTGAGTG | 1

Row | Sequence | switch fluorescence ratio
131 | TGCTTGATTG | 1.03
132 | TGCTTGTAA | 0.997
133 | TGGAAACTTG | 1.06
134 | TGGAACCAGC | 1.03
135 | TGGAACGAGC | 0.987
136 | TGGAATCTAG | 1
137 | TGGAATGTCA | 0.959
138 | TGGACAACGG | 1
139 | TGGACCGTC | 0.995
140 | TGGACGAAAT | 1.08
141 | TGGACGTCAG | 0.956
142 | TGGACGTGTG | 0.985
143 | TGGACTAGTT | 1.02
144 | TGGACTCAGT | 0.955
145 | TGGAGAGCAC | 1.02
146 | TGGAGATCGT | 0.998
147 | TGGAGATGGG | 0.995
148 | TGGAGGGAAA | 0.977
149 | TGGAGGTCAA | 1.07
150 | TGGAGTTGTC | 1.09
151 | TGGATCACGA | 1.03
152 | TGGATGGGTC | 1.01
153 | TGGATGGTCG | 0.952
154 | TGGATGTGTA | 1.01
155 | TGGATGTGTC | 0.986
156 | TGGATTCGTG | 0.996

Row | Sequence | switch fluorescence ratio
157 | TGGATTGGCT | 1.02
158 | TGGCAAAAAT | 0.919
159 | TGGCAAGGTT | 1.27
160 | TGGCAATCTG | 1.52
161 | TGGCACGGAG | 1
162 | TGGCACGGCG | 1.01
163 | TGGCACGTTA | 1.07
164 | TGGCAGCGTG | 1.02
165 | TGGCATATAG | 1.14
166 | TGGCATCTGG | 0.973
167 | TGGCATGGTG | 1.02
168 | TGGCATTAAT | 0.969
169 | TGGCATTGGG | 1.02
170 | TGGCATTTCT | 1.06
171 | TGGCCCTTGC | 1.07
172 | TGGCCTCAGT | 1.02
173 | TGGCGAGAGA | 1.04
174 | TGGCGATCCG | 1.03
175 | TGGCGATGGT | 0.981
176 | TGGCGATTT | 1.03
177 | TGGCGCACAG | 1.04
178 | TGGCGGAAGT | 0.972
179 | TGGCGGCCGC | 0.984
180 | TGGCGTCCGC | 0.956
181 | TGGCGTGACT | 0.951
182 | TGGCGTGTTT | 0.979

Row | Sequence | switch fluorescence ratio
183 | TGGCGTTGTC | 0.93
184 | TGGCTAAAA | 0.99
185 | TGGCTAGTTC | 0.983
186 | TGGCTCACTA | 1
187 | TGGCTCCGCT | 2.2
188 | TGGCTGCAAC | 1.21
189 | TGGCTTATA | 1
190 | TGGCTTCTAG | 0.992
191 | TGGCTTGAGC | 1.01
192 | TGGGACTAGA | 0.965
193 | TGGGAGCGA | 1.04
194 | TGGGAGCGAG | 1
195 | TGGGAGTA | 1.02
196 | TGGGAGTAGT | 0.987
197 | TGGGATAGGG | 0.98
198 | TGGGATCGAA | 0.98
199 | TGGGATCTCT | 1
200 | TGGGATGGG | 0.935
201 | TGGGATTCTG | 0.967
